Measured values as given in PMC5892938.
Some of the results follow. At the low end of the ranking the order means little.

Target: GST-SBP-SLBP (stem-loop binding protein) (UniProt Q14493)
Experiment: targeted RNA Bind-n-Seq;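 note: DESeq read counts versus GST-SBP nonspecific binding control pulldown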
Conditions: RBNS binding buffer: 25 mM Tris pH 7.5, 150 mM KCl, 3 mM MgCl2, 0.1% Tween, 0.5 mg/mL BSA, 1 mM DTT; 27 nM protein, 750 pM RNA pool; temperature not stated; high values mean tight binding

Sequence | binding signal (log2 fold change)
GGUCACGUCUCAAUCAACUCUUCCUCCAGGGAAAGCCCUGGUUAACUCAACAGCUCGCAGUCAAG | -0.0572
GGUCACGUCUCAAUCAACUCUUCCCCAGGAGUUUACUCCUGUUAUUUCAACAGCUCGCAGUCAAG | -0.137
GGUCACGUCUCAAUCAACUCAAUUUCCAGGGAAAUCCCUGGUAUUUUCAACAGCUCGCAGUCAAG | 0.0919
GGUCACGUCUCAAUCAACUCAAAAGAGGGGGGGAAAACCCCUUUGCCCUCAAAUUCAACAGCUCGCAGUCAAG | -0.134
GGUCACGUCUCAAUCAACUCUAUUCCAGGAGUUUUCUCCUGCUUUCUCAACAGCUCGCAGUCAAG | -0.109
GGUCACGUCUCAAUCAACUCUUUCUCCAGGGAAACCCCUGGCUAAUUCAACAGCUCGCAGUCAAG | -0.205
GGUCACGUCUCAAUCAACUCCCCAGAGGGGGGGAAAACCCCUUUACCCUCAUUUUCAACAGCUCGCAGUCAAG | -0.201
GGUCACGUCUCAAUCAACUCAUGUCCAGGAGUUUUCUCCUGCUAUCUCAACAGCUCGCAGUCAAG | 0.0653
GGUCACGUCUCAAUCAACUCUCCCGAGGGGGGGAAAACCCCUUUACCCUCAAAAUCAACAGCUCGCAGUCAAG | -0.372
GGUCACGUCUCAAUCAACUCAAUCCCCAGGGAAAGCCCUGGUAUAUUCAACAGCUCGCAGUCAAG | 0.0198
GGUCACGUCUCAAUCAACUCUUCCCCCAGGGAAAACCCUGGUAAUCUCAACAGCUCGCAGUCAAG | 0.172
GGUCACGUCUCAAUCAACUCUAUGGAGGGGGGGAAAACCCCUUUACCCUCAAAUUCAACAGCUCGCAGUCAAG | -0.201
GGUCACGUCUCAAUCAACUCUUUCCCCAGGGAAAUCCCUGGCUUACUCAACAGCUCGCAGUCAAG | -0.218
GGUCACGUCUCAAUCAACUCUUUCCCAGGAGUUUUCUCCUGUUAUGUCAACAGCUCGCAGUCAAG | 0.376
GGUCACGUCUCAAUCAACUCAACGCCAGGAGUUUGCUCCUGUAUUUUCAACAGCUCGCAGUCAAG | 0.123
GGUCACGUCUCAAUCAACUCAAUCCCCAGGGAAAACCCUGGCUUAUUCAACAGCUCGCAGUCAAG | 0.152
GGUCACGUCUCAAUCAACUCUUCUUCCAGGGAAAGCCCUGGCUAAUUCAACAGCUCGCAGUCAAG | -0.184
GGUCACGUCUCAAUCAACUCAGUCUCAGGAGUUUCCUCCUGUAUAUUCAACAGCUCGCAGUCAAG | -0.0862
GGUCACGUCUCAAUCAACUCAAUCCCAGGAGUUUACUCCUGCAAAUUCAACAGCUCGCAGUCAAG | -0.305

Sequence | binding signal (log2 fold change)
GGUCACGUCUCAAUCAACUCAAUCCCCAGGGAAACCCCUGGUUUUUUCAACAGCUCGCAGUCAAG | 0.223
GGUCACGUCUCAAUCAACUCUAUAGAGGGGGGGAAAACCCCUUUGCCCUCAUCGUCAACAGCUCGCAGUCAAG | 0.131
GGUCACGUCUCAAUCAACUCAACUCCAGGAGUUUGCUCCUGCUAAUUCAACAGCUCGCAGUCAAG | -0.0621
GGUCACGUCUCAAUCAACUCUUCCCCCAGGGAAACCCCUGGUUUUCUCAACAGCUCGCAGUCAAG | 0.0328
GGUCACGUCUCAAUCAACUCAUCCCCAGGAGUUUACUCCUGCUUUUUCAACAGCUCGCAGUCAAG | 0.0768
GGUCACGUCUCAAUCAACUCAACUUCAGGAGUUUACUCCUGCAAUCUCAACAGCUCGCAGUCAAG | 0.00286
GGUCACGUCUCAAUCAACUCAACUCCCAGGGAAAUCCCUGGUUAUUUCAACAGCUCGCAGUCAAG | 0.0344
GGUCACGUCUCAAUCAACUCUCACGAGGGGGGGAAAACCCCUUUGCCCUCAAAAUCAACAGCUCGCAGUCAAG | -0.427
GGUCACGUCUCAAUCAACUCUUUUUCCAGGGAAAACCCUGGUUUACUCAACAGCUCGCAGUCAAG | -0.0858
GGUCACGUCUCAAUCAACUCUUUCUCAGGAGUUUCCUCCUGUUAUCUCAACAGCUCGCAGUCAAG | -0.082
GGUCACGUCUCAAUCAACUCACACGAGGGGGGGAAAACCCCUUUGCCCUCACAAUCAACAGCUCGCAGUCAAG | 0.271
GGUCACGUCUCAAUCAACUCAUCUCCAGGAGUUUCCUCCUGUAUACUCAACAGCUCGCAGUCAAG | 0.117
GGUCACGUCUCAAUCAACUCUUCCCCAGGAGUUUUCUCCUGUUUUCUCAACAGCUCGCAGUCAAG | -0.087
GGUCACGUCUCAAUCAACUCAUUCCCAGGAGUUUGCUCCUGCAUAUUCAACAGCUCGCAGUCAAG | 0.16
GGUCACGUCUCAAUCAACUCUAUCUCAGGAGUUUUCUCCUGUAUAUUCAACAGCUCGCAGUCAAG | -0.0324
GGUCACGUCUCAAUCAACUCAACUUCCAGGGAAAGCCCUGGUAUACUCAACAGCUCGCAGUCAAG | 0.282
GGUCACGUCUCAAUCAACUCAAUCCCAGGAGUUUGCUCCUGCUUAUUCAACAGCUCGCAGUCAAG | 0.0422
GGUCACGUCUCAAUCAACUCCUUAGAGGGGGGGAAAACCCCUUUACCCUCAAUCUCAACAGCUCGCAGUCAAG | -0.444
